# Data taken from PubChem BioAssay AID485294 (National Center for Advancing Translational Sciences (NCATS), 2010).
# The whole screen tested about 370,000 compounds, of which about 150 (0.041%) were called active. The shares of active, inactive and inconclusive entries below differ from those in the screen. Calls follow the shape of the dose curve; as a rule, active = well fitted inhibition curve with a large enough effect; inconclusive = small, poorly fitted or top-dose-only effect; inactive = flat fitted curve, though single readings scatter. Potencies of inconclusive entries are left out as doubtful fits.
# Target: Beta-lactamase (Escherichia coli (strain K12)) (UniProt P00811)
# Test: qHTS Inhibitors of AmpC Beta-Lactamase (assay with detergent); also: nearly all actives have a fitted effect of over 25% in size
# Conditions: AmpC hydrolysis of nitrocefin, absorbance 480 nm, 0.01% Triton; series mostly up to 114 µM
# In short: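 20 mM phosphate pH 7.0 + 0.01% (detergent screen) or 0.0001% Triton X-100; 5.3 nM AmpC reagent; cpd preinc 15 min RT; nitrocefin (800 uM stock) to start; A480 q20 s × 4 min; Activity was normalised to no-enzyme and no-compound control wells.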
# Potency is read from the fitted curve at half-maximal effect; tags tell the direction and shape of the fitted curve.
# Chain of UniProt P00811 (P00811 whole entry, looked up): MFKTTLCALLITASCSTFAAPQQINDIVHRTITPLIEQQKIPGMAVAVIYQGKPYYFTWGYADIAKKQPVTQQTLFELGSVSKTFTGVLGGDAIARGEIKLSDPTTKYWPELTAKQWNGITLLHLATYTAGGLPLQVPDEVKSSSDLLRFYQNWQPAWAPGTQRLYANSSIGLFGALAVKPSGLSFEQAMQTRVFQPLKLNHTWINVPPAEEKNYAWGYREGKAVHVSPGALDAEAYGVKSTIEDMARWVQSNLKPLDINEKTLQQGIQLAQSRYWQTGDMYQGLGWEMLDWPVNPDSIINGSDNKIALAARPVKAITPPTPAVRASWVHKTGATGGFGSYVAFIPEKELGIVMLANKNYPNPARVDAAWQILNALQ
row,SMILES,Potency
1,CCCCCN(C(=O)CN(C)Cc1ccc(OC)cc1OC)c1c(N)n(CCCC)c(=O)[nH]c1=O,"inconclusive [inhibitor, single point]"
2,CC1(c2ccc(Cl)cc2)NC(=O)N(CC(=O)NCCC2=CCCCC2)C1=O (stereo not drawn),"inconclusive [inhibitor, partial curve, poor fit]"
3,CN1C(=O)C2(c3ccccc31)C1CCCC=C1C(C#N)=C(N)C2(C#N)C#N (stereo not drawn),"inconclusive [inhibitor, single point]"
4,Cc1cc([N+](=O)[O-])nn1CC(=O)Nc1ccc(Cc2ccncc2)cc1,"inconclusive [inhibitor, partial curve]"
5,Cc1ccccc1S(=O)(=O)Cc1ccc(C(=O)NCc2cccs2)o1,"inconclusive [inhibitor, full curve, poor fit]"
6,CC(NC(=O)C1CCN(C(=O)Nc2ccccc2)CC1)c1ccc(Cl)cc1 (stereo not drawn),"inconclusive [inhibitor, full curve, poor fit]"
7,CCOC(=O)C1CCN(C(=O)Cc2c(C(=O)O)[nH]c3ccccc23)CC1,"inconclusive [inhibitor, single point]"
8,C/C=C(\NC(C)=O)c1ccccc1,inactive
9,CCNc1nc(SCc2ccccc2)nc(N2CCOCC2)n1,"inconclusive [inhibitor, full curve]"
10,COC(=O)c1cc(CN2CCN(c3ccccc3C)CC2)ccc1O,"inconclusive [inhibitor, partial curve, poor fit]"
11,Cc1ccc(C)c(S(=O)(=O)c2cn(Cc3ccccc3)c3cc(N4CCCC4)c(F)cc3c2=O)c1,inactive
12,COc1ccc(CCNC(=O)COC(=O)c2ccco2)cc1OC,"inconclusive [inhibitor, partial curve, poor fit]"
13,COc1cc(C)c(CN2CCN(C(C)C(=O)NC(C)c3ccccc3)CC2)cc1OC (stereo not drawn),"inconclusive [inhibitor, partial curve, poor fit]"
14,O=C(NC(=O)c1ccccc1)Nc1ccc(Cl)cn1,"inconclusive [inhibitor, full curve, poor fit]"
15,CCN1C(=NCCc2c[nH]c3ccccc23)N[C@@H](c2ccccc2)C(C(=O)OC)=C1C,inactive
16,CCN1C(=O)[C@H]2[C@@H](c3ccc(-c4ccc(C(C)=O)cc4)c(OC)c3)N[C@@](Cc3ccccc3)(C(=O)OC)[C@H]2C1=O,"inconclusive [inhibitor, single point]"
17,CCN1C(=O)C(=C2C=C(C)OC(C)=C2)C(=O)N(CC)C1=S,inactive
18,O=C(Nc1ccnn1C1CCN(C2CCCCC2)CC1)c1cccc(F)c1,"inconclusive [inhibitor, partial curve, poor fit]"
19,Cc1ccc(-n2ncc3c(=O)[nH]c(SCC(=O)N4CCCCC4)nc32)cc1,"inconclusive [inhibitor, full curve, poor fit]"
20,O=C(CSc1ccc(-c2ccc(Cl)cc2)nn1)Nc1ccc2c(c1)OCCO2,"inconclusive [inhibitor, full curve, poor fit]"
21,COC(=O)C1=C(C)N(Cc2ccccc2)C(=NCCc2ccccn2)N[C@H]1c1cccc(C(F)(F)F)c1,"inconclusive [inhibitor, partial curve]"
22,Cc1ccc(NC(=O)C2CCN(C(=O)c3cnn(-c4ccccc4)c3-n3cccc3)CC2)cc1Cl,inactive

row,SMILES,Potency
1,Cc1ccc(S(=O)(=O)N2CCOCC2)cc1N/N=C(\C#N)c1nc2ccccc2[nH]1,inactive
2,C(=N\Nc1nc(N2CCOCC2)nc(N2CCOCC2)n1)/c1ccncc1,"inconclusive [inhibitor, single point]"
3,COc1cc(OC)c(C2Oc3nc(SC)nnc3-c3ccccc3N2C(C)=O)cc1OC (stereo not drawn),"inconclusive [inhibitor, full curve]"
4,COc1ccc2sc(C)nc2c1NC(C)=O,"inconclusive [inhibitor, full curve, poor fit]"
5,COc1ccc(C2=NOC(Cn3c(Cc4ccc(Cl)cc4)nc4c3c(=O)n(C)c(=O)n4C)C2)cc1 (stereo not drawn),inactive
6,O=c1cccc2n1CC1CC2CN(C(c2ccccc2)c2sc3ncnn3c2O)C1 (stereo not drawn),"inconclusive [inhibitor, full curve, poor fit]"
7,Cc1ccc(C[C@H](C(=O)O)N2C(=O)c3ccc(C(=O)O)cc3C2=O)c(C)c1,"inconclusive [inhibitor, full curve]"
8,Cc1ccc(S(=O)(=O)CC(C)(O)CS(=O)(=O)c2ccc(C)cc2)cc1,"inconclusive [inhibitor, single point]"
9,Cc1c(-c2nc3ccccc3[nH]2)cnn1C,inactive
10,CC(CCc1ccccc1)NC(=O)c1ccc(F)cc1 (stereo not drawn),"inconclusive [inhibitor, full curve, poor fit]"
11,Cc1cc(C(=O)N2CCN(c3ccccc3O)CC2)c(C)o1,"inconclusive [inhibitor, partial curve]"
12,CC(Sc1nc2ccccc2c(=O)[nH]1)C(=O)O (stereo not drawn),"inconclusive [inhibitor, partial curve]"
13,Cc1cccc(OCC(=O)Nc2nccs2)c1C,"inconclusive [inhibitor, partial curve, poor fit]"
14,C=CCn1c(O)c(N=Nc2ccccc2O)c2ccccc21,inactive
15,Cc1ccc(Nc2cc(-n3nc(C)cc3C)ncn2)cc1,"inconclusive [inhibitor, full curve]"
16,COC(=O)C(C(=O)OC)c1ccc(NC(=O)c2cccc(Cl)c2)cc1,inactive
17,Cc1ccc(NP(=O)(Oc2ccccc2F)Oc2ccccc2F)cc1,inactive
18,O=C(CCc1ccccc1)N1CCCC1,inactive
19,Cc1cc(C)n(-c2ncnc3sc4c(c23)CC(C)CC4)n1 (stereo not drawn),"inconclusive [inhibitor, full curve]"
20,Cc1cc(F)ccc1S(=O)(=O)N1CCCOC1CNC(=O)C(=O)NC1CCCCC1 (stereo not drawn),inactive
21,N#C/C(=C\c1cn[nH]c1-c1ccc(Cl)cc1)C(=O)NCc1ccccc1,"inconclusive [inhibitor, full curve, poor fit]"
